Assay results taken from ChEMBL document CHEMBL4888484, “Replenishing the malaria drug discovery pipeline: Screening and hit evaluation of the MMV Hit Generation Library 1 (HGL1) against asexual blood stage Plasmodium falciparum ,using a nano luciferase reporter read-out” (2022).
Out of some 150,000 compounds screened, about 540 (0.36%) showed an effect of 50% or more. The list shows a part of the results.

The molecules below were run on Plasmodium falciparum (assay: Primary screen in NF54 nanoGlo assay, in single point, at 2uM, 72h; a lower Z score goes with more inhibition). Settings: timepoint 72 hour.
Type: functional, Erythrocyte

Structure (SMILES) | % Inhibition [%] | Z score
CCc1cc(CNS(=O)(=O)N2CCCCC2)on1 | -15 | 1.97
Cc1cc(-c2ccc(C)c(S(=O)(=O)N3CCN(c4cccc(C(F)(F)F)c4)CC3)c2)on1 | -3 | 0.43
COc1cccc(CNC(=O)c2cn3ccnc(-c4ccc(F)cc4)c3n2)c1OC | -11 | 1.77
COc1ccccc1N(C(C)=O)c1nc(COc2cc(C)nc(C)c2C#N)cs1 | -11 | 1.1
COCCCNS(=O)(=O)c1ccc(-c2cc(C)no2)o1 | -1 | 0.26
CCN1CCN(C(=O)c2n[nH]c3c2CN(C(=O)Cc2ccc(C)cc2)CC3)CC1 | -6 | 0.68
O=C(c1cn2c(n1)CCCC2)N1CCN(c2ccccc2F)CC1 | -13 | 2.16
Cc1c(-c2ccccc2)nn(C)c1NC(=O)NCCN1CCNC1=O | -11 | 1.03
Cc1nnnn1CCc1nc(CC(N)=O)nn1-c1ccc(F)c(F)c1 | -4 | 0.85
Cc1ccc(F)c(CN2CCN[C@H](C(=O)NCc3cccnc3)C2)c1 | -22 | 2.12
C[C@@H](c1nccs1)N1CCN(C(=O)c2ccc(C(N)=O)s2)CC1 | -14 | 1.46
O=C(c1cc(-c2cccnc2)n[nH]1)N1CCc2nc[nH]c2C1 | -9 | 1.2
COc1ccc(NC(=O)Cn2nc(N3CCCCCC3)c3ccccc3c2=O)cc1 | -6 | 0.97
COc1cccc(C(=O)Nc2cc(C)nn2-c2nc3c(cnn3-c3ccc(C)cc3)c(=O)[nH]2)c1OC | 3 | -0.5
CC(C)n1ccc(C(=O)N(C)CCC[C@H]2CCCO2)n1 | -7 | 1.36
Cc1ccccc1OCC(=O)OC1CCCN(C)C1 (stereo not drawn) | -16 | 1.42
Cc1sc2ncnc(N3CCN4C(=O)OC[C@H]4C3)c2c1C | -3 | 0.56
O=C(COc1ccc(-n2cccn2)nn1)Nc1cc(F)ccc1F | -2 | 0.36
Cc1nnc([C@H]2CN(C(=O)c3cccnc3)CC23CCN(C(=O)c2cccnc2)CC3)o1 | -12 | 1.8
N#Cc1c(F)cccc1N[C@@H]1C[C@H]1CO | -2 | 0.45
COCCc1nc(Cn2cnc(-c3ccccc3)c2-c2cccnc2)no1 | 2 | -0.26
NC(=O)[C@H]1CCCN(C(=O)c2ccc(NC(=O)c3cccs3)cc2)C1 | -25 | 4.62
CCC(=O)Nc1ccc2c(c1)C(N1CCOCC1)=Nc1ccccc1O2 | -10 | 1.26
CO[C@@H](CNS(C)(=O)=O)c1ccccc1Cl | 12 | -1.57
O=c1ccc(N2CCN(S(=O)(=O)c3cccc4nsnc34)CC2)nn1-c1ccc(Cl)cc1 | 12 | -1.44
CCn1ncnc1CNC[C@H]1CC1(CC)CC | -2 | 0.47
C[C@@H](C(=O)NCCCn1cc(Cl)cn1)n1cnnn1 | -10 | 1.83

Structure (SMILES) | % Inhibition [%] | Z score
Cc1cc(F)ccc1-c1ccc(C(=O)N2CCO[C@@H](CC(=O)O)C2)cc1F | 12 | -1.46
Cc1ccc(C(=O)NC2CCN(c3ccc(-c4cccc(F)c4)nn3)CC2)cn1 | 15 | -1.74
O=S(=O)(C1CCOCC1)N1CCC2(CCCC2)CC1 | -2 | 0.31
CC(C)CCN1C[C@]23C=C[C@H](O2)C(C(=O)N2CCNC(=O)CC2)C3C1=O (stereo partly drawn) | -7 | 1.34
CCOc1cccc(CNC(=O)c2cnc(N3CCC4(CC3)OCCO4)nc2N)c1 | -5 | 0.62
O=C(Nc1nccs1)c1cnsn1 | -5 | 0.58
O=C(NC1CCCCC1)c1coc(CN2CCN(Cc3cccc(F)c3F)CC2)n1 | -13 | 2.18
COc1ccc(N2CCN(C(=O)CCn3nc(C)c(S(=O)(=O)N4CCCC4)c3C)CC2)cc1 | -7 | 1.31
CCCOC(=O)c1cnc2nc(C)ccc2c1Nc1ccc(C)cc1O | 3 | -0.39
Cc1cccc(C)c1NC(=O)NCCc1nc2cccnc2n1C1CCCC1 | -10 | 1.35
O=C(NC1CC=CC1)C1(C(=O)NC2CC=CC2)CCC1 | -1 | 0.11
Cc1c(Cl)cccc1NC(=O)C1CCN(c2cc(C3CC3)ncn2)CC1 | 0 | -0.08
CCN(CC)[C@H](CNC(=O)c1ccccc1Br)CC(C)C | 4 | -0.6
O=S(=O)(N1CCOCC1)N1CC(c2ccccc2)C(c2ncon2)C1 (stereo not drawn) | -11 | 2.16
Cc1cc(C)c2c(c1)[C@H]1OCCC[C@H]1C(c1ccc(Cl)cc1)N2 (stereo partly drawn) | -15 | 2.46
CCC(C)(C)c1nnc(N2CCC(OC)CC2)o1 | -3 | 0.29
Cn1nccc1C(=O)NC[C@H]1CCc2ccccc2O1 | -13 | 2.48
Cc1cc(NC(=O)C2CCC2)n(-c2ccc(C(F)(F)F)cn2)n1 | -6 | 0.78
COc1ncccc1CN1c2ccccc2N(C2CCC2)S1(=O)=O | -15 | 1.54
Cc1ccc(F)c(-n2cc(O)c(C(=O)NCc3nnc(C)n3C3CC3)n2)c1 | -4 | 0.43
O=C1CN(Cc2ccns2)[C@H](c2ccccc2)CN1 | 9 | -0.78
COc1ccccc1CCNCc1c(C(=O)O)c(C)n(-c2ccc(C)cc2)c1C | -3 | 0.5
O=C(CN1CCC[C@H]1C(=O)O)Nc1ccccc1C(F)(F)F | -2 | 0.29
COc1ccc(NC(=O)CCN2CCC[C@H]2c2ncc[nH]2)cc1 | -5 | 0.84
CCN1C[C@H](CN(C)C(=O)c2ccc(F)c(F)c2)Oc2ccccc21 | -7 | 0.67
Cc1ccc(S(=O)(=O)N2CCN(C(=O)CCc3c(C)nn(C)c3C)CC2)cc1 | -3 | 0.39
CC(=O)N(CCC(=O)N(CCC#N)CC(C)(C)C)Cc1ccccc1 | -5 | 0.72
